# Measurements from paper PMC4336329 (PLoS ONE, 2015).
# Among all 310,000 compounds or so, about 2,200 (0.71%) showed an effect of 50% or more. The effect is printed as a negative number. Some of the results follow.
# Molecular target: human ether-à-go-go-related gene (hERG) potassium channel (human, UniProt Q12809)
# Experiment: primary screen, population patch clamp on CHO cells stably expressing hERG
# Sequence of human ether-à-go-go-related gene (hERG) potassium channel (Q12809 whole entry, looked up): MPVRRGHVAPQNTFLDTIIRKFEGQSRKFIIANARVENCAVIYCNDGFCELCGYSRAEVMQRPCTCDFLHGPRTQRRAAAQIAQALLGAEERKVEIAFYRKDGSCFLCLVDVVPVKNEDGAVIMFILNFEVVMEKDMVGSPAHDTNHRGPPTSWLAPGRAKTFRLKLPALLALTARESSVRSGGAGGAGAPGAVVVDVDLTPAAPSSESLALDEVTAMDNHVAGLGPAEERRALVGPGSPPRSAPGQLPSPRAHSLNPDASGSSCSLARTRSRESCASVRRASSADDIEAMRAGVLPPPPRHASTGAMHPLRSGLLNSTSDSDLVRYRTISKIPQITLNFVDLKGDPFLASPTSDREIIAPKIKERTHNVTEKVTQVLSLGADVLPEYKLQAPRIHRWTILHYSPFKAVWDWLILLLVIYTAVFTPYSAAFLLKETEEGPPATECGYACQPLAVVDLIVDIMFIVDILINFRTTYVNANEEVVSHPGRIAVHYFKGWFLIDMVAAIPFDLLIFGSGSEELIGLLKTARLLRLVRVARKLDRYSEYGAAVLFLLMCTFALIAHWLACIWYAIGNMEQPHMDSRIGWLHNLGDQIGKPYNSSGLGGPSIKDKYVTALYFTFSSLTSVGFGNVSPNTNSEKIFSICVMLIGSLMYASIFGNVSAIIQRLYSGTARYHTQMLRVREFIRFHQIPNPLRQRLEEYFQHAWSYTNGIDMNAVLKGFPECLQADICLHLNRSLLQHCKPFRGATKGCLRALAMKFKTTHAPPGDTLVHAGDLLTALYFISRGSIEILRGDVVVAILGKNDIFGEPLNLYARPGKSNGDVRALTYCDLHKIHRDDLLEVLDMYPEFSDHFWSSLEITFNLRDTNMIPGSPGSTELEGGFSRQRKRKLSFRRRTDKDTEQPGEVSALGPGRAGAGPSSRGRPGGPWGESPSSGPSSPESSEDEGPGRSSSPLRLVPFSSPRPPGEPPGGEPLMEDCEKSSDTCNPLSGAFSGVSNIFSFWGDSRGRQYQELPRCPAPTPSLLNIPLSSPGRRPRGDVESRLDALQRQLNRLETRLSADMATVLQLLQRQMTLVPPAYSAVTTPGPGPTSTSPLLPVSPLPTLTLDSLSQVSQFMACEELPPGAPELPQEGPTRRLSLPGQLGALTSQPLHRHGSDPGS
row,SMILES,"hERG current change (%, negative = inhibition) at 1uM"
1,O=C(CN(CC1CCCO1)C(=O)CNS(=O)(=O)c1ccc(F)cc1)NCc1ccccc1 (stereo not shown),8.27%
2,CN(CC(=O)Nc1ccc(OC(F)(F)F)cc1)C(=O)Cc1ccc2c(c1)CCC2,15.2%
3,CCOc1ccc(S(=O)(=O)N2CCOCC2)cc1NC(=O)C1CCC1,8.22%
4,CCC(C)[C@H](NC(=O)N1CC(=O)Nc2ccccc21)C(=O)N[C@@H](Cc1c[nH]c2ccccc12)C(=O)O (stereo partly shown),0.677%
5,Cc1ccc(NC(=O)Cn2cccc2)cc1Cl,-8.85%
6,Cc1ccc(C(=O)Nc2ccc(S(=O)(=O)NCc3ccco3)cc2)cc1,-2.03%
7,Cc1cccc(NC(=O)CNC(=O)c2cccc(-n3cccc3)c2)c1C,0.397%
8,CS(=O)(=O)c1ccc2nc(NC(=O)C3C4C=CC(C4)C3C(=O)O)sc2c1 (stereo not shown),10.4%
9,CCOC(=O)CCc1c(C)c2ccc(OCc3cc([N+](=O)[O-])ccc3OC)c(C)c2oc1=O,7.94%
10,Cc1cc2ccccc2cc1CN1CCOCC1,12.3%
11,CC(C)C(C)N(Cc1ccc(C(=O)O)cc1)C(=O)c1ccc2ccccc2n1 (stereo not shown),4.93%
12,CCn1c2ccccc2c2cc(NC(=O)c3ccc(Br)o3)ccc21,10.9%
13,O=C(Nc1cccnc1)c1ccc(Cl)c(S(=O)(=O)N2CCc3ccccc32)c1,2.73%
14,OCc1cn(-c2ccccc2)nc1-c1cccnc1,11.3%
15,CCN1CCN(C(=O)N(Cc2ccc(Cl)cc2)S(=O)(=O)c2ccc(C)cc2)CC1,-12.5%
16,CC1(C)CC(CC(=O)O)CC(C)(C)N1.Cl,6.08%
17,COc1ccccc1N1CCN(c2nccc(C)n2)CC1,9.04%
18,Cc1[nH]c2c(C)cccc2c1CCNC(=O)c1ccc2c(c1[N+](=O)[O-])C(=O)c1ccccc1C2=O,15%
19,Cc1ccc(C)c(S(=O)(=O)N2CCCOC2CNC(=O)C(=O)NC2CC2)c1 (stereo not shown),19.9%
20,Cc1ccc(CNC(=O)CN(C)S(=O)(=O)c2ccc(F)cc2)cc1,3.37%
21,CCOc1ccc(NC(=O)COC(=O)c2cc([N+](=O)[O-])ccc2N2CCOCC2)cc1,-5.99%
22,CCOc1ccc(C(=O)C2CCN(C(=O)c3ccc([N+](=O)[O-])cc3)CC2)cc1,-81.1%

row,SMILES,"hERG current change (%, negative = inhibition) at 1uM"
1,Cc1ccc(NC(=O)C2CC(=O)n3c(nc4ccccc43)N2)cc1C (stereo not shown),7.27%
2,CSc1nc2ccccc2c(=O)n1C1CCCCC1,12.4%
3,COc1ccc(C2(CNC(=O)Cc3ccc(OC)c(OC)c3)CCCC2)cc1,-6.09%
4,c1ccc2c(CCNC3=NCCC3)c[nH]c2c1,11.9%
5,Nc1nc(NCc2ccco2)nc(N2CCN(Cc3ccccc3)CC2)c1[N+](=O)[O-],-10%
6,CN(CC(=O)Nc1ccccc1C(F)(F)F)C(=O)COc1ncnc2sccc12,6.31%
7,O=C(O)CCn1nnc(-c2cccs2)n1,7.06%
8,O=C(N/N=C\c1ccc2c(c1)OCO2)c1cncc(Br)c1,9.36%
9,O=C(COc1ccccc1[N+](=O)[O-])Nc1ccc2oc(=O)ccc2c1,17%
10,O=C(Nc1nnc(-c2ccc3c(c2)CCCC3)o1)c1ccc(Cl)cc1Cl,4.18%
11,CC(C)(C)NC(=O)CSc1nsc(SCC(=O)NC(C)(C)C)c1C#N,6.97%
12,CSCCC(N=C(NS(=O)(=O)c1ccc(Br)cc1)c1ccccc1)C(=O)O (stereo not shown),22.9%
13,NC(=O)CSc1nnc(-c2ccccn2)n1Cc1ccco1,18.4%
14,Cc1csc(N/N=C/c2ccccc2F)n1,12.1%
15,O=C(NCC1COc2ccccc2O1)Nc1ccccc1F (stereo not shown),-0.0005%
16,CC(C)CCNC(=O)Cn1c(=O)oc2cc(S(=O)(=O)N3CCc4ccccc43)ccc21,11.3%
17,CCc1cccc(NC(=O)CS(=O)Cc2nc(-c3ccc(C)cc3)oc2C)c1 (stereo not shown),0.247%
18,Cc1ccc(O)c(NC(=O)C2CC(c3ccc(F)cc3)=NO2)c1 (stereo not shown),2.14%
19,O=C(CN1CCN(c2ccc(O)cc2)CC1)Nc1cc(S(=O)(=O)N2CCOCC2)ccc1Cl,5.66%
20,CSc1ccc(CN(C)CC(=O)Nc2ccc(C)cc2Br)cc1,1.23%
21,CC(C)NC(=O)C1CCCN(S(=O)(=O)c2cccc3nonc23)C1 (stereo not shown),6.87%
22,COc1ccc(NC(=O)CCSc2nnnn2C)cc1,10.2%

row,SMILES,"hERG current change (%, negative = inhibition) at 1uM"
1,CC(C)C[C@H](NC(=O)c1[nH]cnc1C(=O)Nc1ccccc1)C(=O)OC(C)(C)C,6.21%
2,COc1ccc(NC(=O)c2cc3ccc(O)cc3o/c2=N\O)cc1,12.4%
3,Nc1cc([N+](=O)[O-])ccc1N1C(=O)CCCC1=O,15.4%
4,CN(C)C=O.Cc1ccccc1NC(=O)COC(=O)C1=COCCO1,9.34%
5,COCCNCC(=O)Nc1ccccc1Sc1ccccc1.O=C(O)C(=O)O,9.2%
6,COc1ccc2nc3oc(C(=O)N4CCC(C(N)=O)CC4)cc3cc2c1,7.67%
7,CC(Oc1ccccc1Cl)C(=O)Nc1ccccc1C(=O)N1CCOCC1 (stereo not shown),14%
8,CC(=O)Nc1ccc(S(=O)(=O)NC2=C(N3CCN(c4ccc(F)cc4)CC3)C(=O)c3ccccc3C2=O)cc1,12.5%
9,Cc1ccc(C(=O)NCCSCc2ccccc2)cc1[N+](=O)[O-],2.33%
10,CC1(C)Cc2ccccc2C(NNC(=O)c2ccccn2)=N1,10.8%
11,CCc1cc(/C(Cc2cscn2)=N\O)c(O)cc1O,-1.74%
12,CCC(C)(C(=O)NC1CCCC1)N(C(=O)CC1NC(=O)NC1=O)c1c(C)n(C)n(-c2ccccc2)c1=O (stereo not shown),11.5%
13,Clc1cccc(N=C2NN=C(c3ccc4c(c3)OCCO4)CS2)c1,13.8%
14,COc1ccccc1C(=O)NCCC(=O)Nc1ccc(C)cn1,5.6%
15,CCN(CC)S(=O)(=O)c1ccc(C(=O)N(c2ccc(C)cc2)C2C=CS(=O)(=O)C2)cc1 (stereo not shown),8.76%
16,Cc1ccc(C(=O)COC(=O)c2cn3ccccc3n2)cc1,12%
17,Cc1ccc(S(=O)(=O)N2CCN(C3CC(=O)N(Cc4ccccc4)C3=O)CC2)cc1C (stereo not shown),-3.87%
18,Cc1ccc(C(=O)CC2(O)C(=O)N(Cc3ccccc3Cl)c3ccccc32)o1 (stereo not shown),5.22%
19,COc1ccc(CCCCCCOCc2ccccc2)cc1,15%
20,COc1ccc(CCNC(=O)Cn2nnc(C(=O)Nc3cc(C)ccc3C)c2N)cc1OC,4.67%
21,O=C(Nc1ccc(S(=O)(=O)N2CCCCC2)cc1)C1CC(=O)N(Cc2ccccc2)C1 (stereo not shown),13.4%
22,COc1ccc(C(=O)Cn2c(Br)nc3c2c(=O)n(C)c(=O)n3C)cc1OC,14.7%

row,SMILES,"hERG current change (%, negative = inhibition) at 1uM"
1,O=C(OCCCN=C1NS(=O)(=O)c2ccccc21)C1CC(=O)N(c2ccc(Cl)cc2)C1 (stereo not shown),-6.53%
2,COc1cccc(-c2nn(C)c3sc(C(=O)N4CCN(c5ccccc5)CC4)cc23)c1,13.8%
3,O=C(COC(=O)CNC(=O)c1ccccc1Cl)Nc1ncc(C(F)(F)F)cc1Cl,0.495%
4,O=C(NCc1cccnc1)C(=O)Nc1ccc2c(c1)OCO2,14%
5,O=C1C2C3C=CC(C3)C2C(=O)N1c1ccc2c(c1)CCC2 (stereo not shown),5.44%
6,CC(=O)Nc1ccc(NC(=O)CSc2ncc(C(=O)Nc3ccc(F)cc3)c(=O)n2C)cc1,-9.81%
7,Cc1nn(C)c(C)c1S(=O)(=O)N(CC(=O)NCCCN1CC(C)CC(C)C1)c1ccc(C(C)C)cc1 (stereo not shown),-43.5%
8,Cc1cc(C(=O)Nc2cccnc2)no1,9.73%
9,CC(C)(C)NC(=O)Cn1nnc(-c2ccc(Cl)cc2)n1,8.77%
10,CCOc1ccc2oc(C(=O)NC(C)(C)CC)c(C)c2c1,8.79%
11,COC(=O)Nc1ccc(S(=O)(=O)N2CCC(C(=O)N3CCC(C)CC3)CC2)cc1,18.4%
12,O=C(CF)NC(Nc1cccc2cccnc12)C(Cl)(Cl)Cl (stereo not shown),5.72%
13,CCCNC(=O)c1c(N)n(CC2CCCO2)c2nc3ccccc3nc12 (stereo not shown),18.2%
14,CCOC(=O)N1CCN(C(=O)CSc2ncccn2)CC1,7.68%
15,O=C(Nc1ccccc1N1CCCC1)c1ccc(F)c(S(=O)(=O)N2CCOCC2)c1,7.15%
16,O=C(Nc1cccc(-c2nc3cc(Cl)ccc3o2)c1)C1CCCO1 (stereo not shown),8.19%
17,CC1OC(C)(C)OC1C1CNc2nc(NC(=O)C(C)(C)C)[nH]c(=O)c2N1C(=O)c1cccnc1 (stereo not shown),15.6%
18,O=C1c2cccc3c([N+](=O)[O-])ccc(c23)C(=O)N1CCc1ccccn1,5.62%
19,Oc1ccc(Oc2ccc3c(C(F)(F)F)cc(C(F)(F)F)nc3n2)cc1,6.47%
